Source: the supplement of paper PMC10369915
The list shows a part of the results. Cut-off read from the data, not from the text of the source: active = 3.2 or more and inactive = the rest. Most of these values are background signal.

What was measured:
Test in all cases: enrichment score (SH2-bound / input frequency) (ratio); bacterial display of known human phosphotyrosine sites (pTyr-Var adds point mutants) read by sequencing; higher = stronger binding; tyrosines were phosphorylated by kinases first
Conditions in all cases: peptide library: pTyr-Var
[1] = molecular target: SHP2 C-SH2 domain E139D
[2] = molecular target: SHP2 C-SH2 domain wild-type
[3] = molecular target: SHP2 N-SH2 domain L43F
[4] = molecular target: SHP2 N-SH2 domain T42A
[5] = molecular target: SHP2 N-SH2 domain T52S
[6] = molecular target: SHP2 N-SH2 domain wild-type

Measured: enrichment score
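Note: displayed peptides selected on beads carrying the immobilized SH2 domain, with library peptides lacking any tyrosine serving as negative controls.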

EIELAYRRRPP [GRIN2B_Y1109]
inactive: [1] 0.195 | [2] 0.194 | [3] 0.22 | [4] 0.41 | [5] 0.255 | [6] 0.261

GHNDVYISKHV [GRIN2A_Y1423_E1426K]
inactive: [1] 0.903 | [2] 0.677 | [3] 0.633 | [4] 0.615 | [5] 0.495 | [6] 0.685

EKMWTYMPSAE [GRIA4_Y695_R697P]
inactive: [1] 1 | [2] 0.9 | [3] 0.938 | [4] 1.17 | [5] 0.81 | [6] 0.882

KDKLPYPFDDP [GPX2_Y125_YF]
inactive: [1] 0.719 | [2] 0.583 | [3] 0.589 | [4] 0.583 | [5] 0.91 | [6] 0.563

LDTFIYDAAVL [GRIN2A_Y730_A727T]
inactive: [1] 1.78 | [2] 1.23 | [3] 1.64 | [4] 1.61 | [5] 1.3 | [6] 1.09

KLPYLYDDPFS [GPX2_Y127_P126L]
inactive: [1] 1.04 | [2] 0.958 | [3] 1.19 | [4] 2.25 | [5] 1.15 | [6] 1.18

RMGNLYDIDED [GRIN2A_Y1246]
inactive: [1] 0.942 | [2] 0.6 | [3] 0.744 | [4] 0.854 | [5] 1.18 | [6] 0.823

LFPANYVAPMT [GRAP2_Y324]
inactive: [1] 1.04 | [2] 1.07 | [3] 0.952 | [4] 1.14 | [5] 1.04 | [6] 0.877

SYVVRYNQPRV [GRIN2D_Y736_M733V]
inactive: [1] 0.91 | [2] 0.821 | [3] 0.839 | [4] 1.14 | [5] 0.82 | [6] 0.739

EAIAKYDLKAT [GRB2_Y7_F9L]
inactive: [1] 1.3 | [2] 0.984 | [3] 1.06 | [4] 0.913 | [5] 0.946 | [6] 1.06

GFAIVYGTIIL [GPR179_Y460]
inactive: [1] 0.649 | [2] 1.06 | [3] 0.767 | [4] 0.499 | [5] 0.692 | [6] 1.1

EGNERYEGYCV [GRIA3_Y451]
inactive: [1] 0.509 | [2] 0.494 | [3] 0.476 | [4] 0.414 | [5] 0.357 | [6] 0.666

SFVVRYNQPRV [GRIN2D_Y736_M733V_YF]
inactive: [1] 1.26 | [2] 0.896 | [3] 1.21 | [4] 0.948 | [5] 0.956 | [6] 1.06

EAIAKYDFKAT [GRB2_Y7]
inactive: [1] 0.869 | [2] 0.58 | [3] 0.88 | [4] 0.758 | [5] 0.659 | [6] 0.949

EGNEQYEGYCV [GRIA3_Y451_R450Q]
inactive: [1] 0.511 | [2] 0.462 | [3] 0.493 | [4] 0.482 | [5] 0.397 | [6] 0.439

EHVMPYAANKN [GRIN2A_Y1431]
inactive: [1] 0.566 | [2] 0.61 | [3] 0.696 | [4] 0.53 | [5] 0.638 | [6] 0.651

PDMHSYVVRFN [GRIN2D_Y732_M733V_YF]
inactive: [1] 0.992 | [2] 1.12 | [3] 0.938 | [4] 1.04 | [5] 0.883 | [6] 0.749

FASTGYVIAIQ [GRIN2B_Y762_G763V]
inactive: [1] 1.11 | [2] 0.883 | [3] 0.889 | [4] 1.19 | [5] 0.843 | [6] 0.889

YGMQLYQNYMH [GRB14_Y347]
inactive: [1] 2.47 | [2] 2.22 | [3] 2.09 | [4] 2.24 | [5] 2.47 | [6] 2.29

GHNDVYILEHV [GRIN2A_Y1423_S1425L]
inactive: [1] 1.04 | [2] 0.764 | [3] 0.918 | [4] 0.895 | [5] 0.875 | [6] 0.733

EFAAGYNVKFD [GPX4_Y123]
inactive: [1] 0.728 | [2] 0.61 | [3] 0.712 | [4] 0.533 | [5] 0.738 | [6] 0.604

GHNNVYISEHV [GRIN2A_Y1423_D1421N]
inactive: [1] 0.645 | [2] 0.558 | [3] 0.86 | [4] 0.569 | [5] 0.851 | [6] 0.747

LIFVSYDDWDY [GRIN2A_Y281_S278F]
active: [1] 3.78 | [3] 3.26 | [5] 3.23
inactive: [2] 3.12 | [4] 2.58 | [6] 3.05

SFMVRYNQPRV [GRIN2D_Y736_YF]
inactive: [1] 1.49 | [2] 1.28 | [3] 1.3 | [4] 1.4 | [5] 1.36 | [6] 1.34

EKMWSYTKSAE [GRIA3_Y705_M706T]
inactive: [1] 0.86 | [2] 0.734 | [3] 0.791 | [4] 0.709 | [5] 0.899 | [6] 1.4

IGEVVYQWAVM [GRIN2A_Y502_R504W]
inactive: [1] 1.12 | [2] 0.927 | [3] 0.95 | [4] 0.814 | [5] 1.05 | [6] 1.03

PLFSKYWPNHI [GREB1L_Y1560_R1558S_YF]
inactive: [1] 0.767 | [2] 0.779 | [3] 1.21 | [4] 0.729 | [5] 0.928 | [6] 0.895

PDMHSYVVRYN [GRIN2D_Y732_M733V]
inactive: [1] 0.868 | [2] 0.756 | [3] 0.8 | [4] 0.838 | [5] 0.91 | [6] 0.733

QRVLLYVQRET [GRHL3_Y518_R520Q]
inactive: [1] 2.33 | [2] 1.68 | [3] 2.12 | [4] 1.74 | [5] 1.82 | [6] 2.06

FGMQLYQKFMH [GRB14_Y347_N349K_YF]
active: [1] 3.33
inactive: [2] 3.01 | [3] 3.04 | [4] 2.65 | [5] 3.12 | [6] 2.95

PLFRKYWPNHI [GREB1L_Y1560_YF]
inactive: [1] 0.694 | [2] 0.56 | [3] 0.645 | [4] 0.588 | [5] 0.619 | [6] 0.546

SVSVNYGDLVQ [GRAP_Y101_Q104L]
inactive: [1] 0.677 | [2] 0.817 | [3] 0.678 | [4] 0.635 | [5] 0.712 | [6] 0.59

DFAIVYGTIIL [GPR179_Y460_G455D]
inactive: [1] 0.521 | [2] 0.742 | [3] 0.529 | [4] 0.493 | [5] 0.501 | [6] 0.856

LDAFIYNAAVL [GRIN2A_Y730_D731N]
inactive: [1] 0.55 | [2] 0.566 | [3] 0.78 | [4] 0.608 | [5] 0.624 | [6] 0.54

YGMQLYQKYMH [GRB14_Y347_N349K]
inactive: [1] 1.09 | [2] 0.877 | [3] 0.985 | [4] 0.794 | [5] 0.997 | [6] 0.911

FFPANYVAPMT [GRAP2_Y324_L319F]
inactive: [1] 1.19 | [2] 1.02 | [3] 1.44 | [4] 1.02 | [5] 1.37 | [6] 1.05

FGMQLYQNFMH [GRB14_Y347_YF]
active: [1] 3.48
inactive: [2] 2.95 | [3] 2.85 | [4] 3.02 | [5] 2.73 | [6] 2.84
